In the supplement of paper PMC10369915:
The list shows a part of the results. Cut-off read from the data, not from the text of the source: active = 3.2 or more and inactive = the rest. Only a few entries rise above the background.

Columns and labels:
Experiment in all cases: enrichment score (SH2-bound / input frequency) (ratio); bacterial display of known human phosphotyrosine sites (pTyr-Var adds point mutants) read by sequencing; higher = stronger binding; tyrosines were phosphorylated by kinases first
Details in all cases: peptide library: pTyr-Var
[1] = biological target: SHP2 C-SH2 domain E139D
[2] = biological target: SHP2 C-SH2 domain wild-type
[3] = biological target: SHP2 N-SH2 domain L43F
[4] = biological target: SHP2 N-SH2 domain T42A
[5] = biological target: SHP2 N-SH2 domain T52S
[6] = biological target: SHP2 N-SH2 domain wild-type

Measured: enrichment score
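Note: displayed peptides selected on beads carrying the immobilized SH2 domain, with library peptides lacking any tyrosine serving as negative controls.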

B1: PSMD9_Y70_T74I (peptide)
chain: SDVDLYQVRIA
inactive: [1] 0.724 | [2] 0.745 | [3] 0.639 | [4] 0.5 | [5] 0.605 | [6] 0.7

B2: PSME1_Y249 (peptide)
chain: TKGMIYGGGGG
inactive: [1] 0.627 | [2] 0.534 | [3] 0.447 | [4] 0.38 | [5] 0.507 | [6] 0.451

B3: PSTPIP1_Y53_Q48H (peptide)
chain: HAEERYGKELV
inactive: [1] 0.631 | [2] 0.671 | [3] 0.66 | [4] 0.521 | [5] 0.394 | [6] 0.821

B4: PSTPIP2_Y323_N322D (peptide)
chain: PDDPDYSLVDD
inactive: [1] 0.521 | [2] 0.776 | [3] 0.605 | [4] 0.497 | [5] 0.498 | [6] 0.679

B5: PSTPIP2_Y323_N322S (peptide)
chain: PDDPSYSLVDD
inactive: [1] 0.433 | [2] 0.558 | [3] 0.36 | [4] 0.369 | [5] 0.57 | [6] 0.567

B6: PTAR1_Y42_R41S (peptide)
chain: CPEASYNRSPI
inactive: [1] 0.895 | [2] 0.821 | [3] 0.711 | [4] 0.601 | [5] 0.546 | [6] 1.1

B7: PTCHD1_Y84 (peptide)
chain: SKHRLYSDLQT
inactive: [1] 1.87 | [2] 1.34 | [3] 1.29 | [4] 1.46 | [5] 1.66 | [6] 1.44

B8: PTCHD1_Y84_R82H (peptide)
chain: SKHHLYSDLQT
inactive: [1] 1.5 | [2] 1.3 | [3] 1.51 | [4] 1.34 | [5] 1.6 | [6] 1.19

B9: PTDSS1_Y274 (peptide)
chain: PASWTYVRWFD
inactive: [1] 1.29 | [2] 1.62 | [3] 1.33 | [4] 1.69 | [5] 1.46 | [6] 1.03

B10: PTEN_Y138 (peptide)
chain: VMICAYLLHRG
inactive: [1] 1.64 | [2] 1.86 | [3] 1.71 | [4] 1.81 | [5] 1.51 | [6] 1.89

B11: PTEN_Y138_C136Y (peptide)
chain: VMIYAYLLHRG
inactive: [1] 0.703 | [2] 0.902 | [3] 0.936 | [4] 0.836 | [5] 0.974 | [6] 0.745

B12: PTEN_Y138_V133I (peptide)
chain: IMICAYLLHRG
inactive: [1] 1.91 | [2] 2.39 | [3] 1.81 | [4] 1.89 | [5] 1.82 | [6] 1.94

B13: PTEN_Y155 (peptide)
chain: EALDFYGEVRT
inactive: [1] 0.883 | [2] 0.699 | [3] 0.674 | [4] 0.603 | [5] 0.734 | [6] 0.958

B14: PTEN_Y155_T160I (peptide)
chain: EALDFYGEVRI
inactive: [1] 0.955 | [2] 1.55 | [3] 1.54 | [4] 1.07 | [5] 1.24 | [6] 1.94

B15: PTEN_Y155_Y155C (peptide)
chain: EALDFCGEVRT
inactive: [1] 1.16 | [2] 1.09 | [3] 0.938 | [4] 0.834 | [5] 0.878 | [6] 1.07

B16: PTEN_Y174_R173C_YF (peptide)
chain: PSQRCYVFFFS
inactive: [1] 2.38 | [2] 2.21 | [3] 2.13 | [4] 1.96 | [5] 1.95 | [6] 2.08

B17: PTEN_Y174_R173H (peptide)
chain: PSQRHYVYYYS
inactive: [1] 1.87 | [2] 1.87 | [3] 1.38 | [4] 1.54 | [5] 1.67 | [6] 1.3

B18: PTEN_Y174_R173H_YF (peptide)
chain: PSQRHYVFFFS
inactive: [1] 1.97 | [2] 2.59 | [3] 1.88 | [4] 1.87 | [5] 1.81 | [6] 1.54

B19: PTEN_Y174_R173P (peptide)
chain: PSQRPYVYYYS
inactive: [1] 1.09 | [2] 1.45 | [3] 0.783 | [4] 1.03 | [5] 1.69 | [6] 0.726
